The values below come from a collection of fitness landscapes (doi:10.1038/s41467-024-54723-y).

Over roughly 18,000 sequences, “TetR repression strength (sort-seq, GFP reporter)” has its median near 0.23; the highest 2% begin near 0.68. The list shows a part of the results.

UniProt P04483, sequence (P04483 whole entry): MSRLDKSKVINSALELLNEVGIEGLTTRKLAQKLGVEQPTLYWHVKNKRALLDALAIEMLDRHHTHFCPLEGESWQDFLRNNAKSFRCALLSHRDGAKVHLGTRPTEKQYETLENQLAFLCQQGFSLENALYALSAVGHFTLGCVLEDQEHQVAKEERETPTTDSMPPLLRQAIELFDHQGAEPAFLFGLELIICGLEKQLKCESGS

The assay deals with TetR (class B, Tn10) (UniProt P04483). The assay can be described thus: TetR repression strength (sort-seq, GFP reporter) (relative to tetO2 = 1); higher = stronger repression. The conditions noted are these: E. coli. An outline of the steps:
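In LB with 50 µg/mL chloramphenicol, E. coli SIG10-MAX holding a low-copy library with eight randomized operator positions between a constitutive promoter and sfGFP, plus constitutive TetR, grew for 5 h at 37 °C. FACS then sorted 10^6 cells into 13 fluorescence bins for Illumina sequencing of each bin. Repression strength equals the top bin index plus one less the read-weighted mean bin, normalized to the unaltered operator. Values from three independent transformations were averaged when reads were ≥30 in every replicate and the CV was ≤0.5.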
Sequence TCCCAAAAAGTACCAGAGA displayed a TetR repression strength of 0.319. Next, TCCCGTTAAGTTTTGGAGA: 0.119.

On to TCCCAACTAGTTTTAGAGA, for which the TetR repression strength was determined as 0.508. Next, TCCCAACGAGTACTTGAGA: 0.0467. The figure for TCCCTTGCAGTTCTGGAGA is 0.482; for TCCCTCCGAGTGACTGAGA it is 0.365; for TCCCTGGAAGTAGTGGAGA it is 0.139. Next, TCCCTGGCAGTGGAAGAGA: 0.255. Sequence TCCCAAGTAGTCCGGGAGA returned a TetR repression strength of 0.258. As for TCCCTTGTAGTGGACGAGA, the TetR repression strength stood at 0.354. The figure for TCCCGGAGAGTACGGGAGA is 0.264; for TCCCTCAGAGTAGTGGAGA it is 0.187. TCCCCAAAAGTCCTAGAGA had a TetR repression strength of 0.524. The figure for TCCCTAGTAGTAAGTGAGA is 0.237; for TCCCAAGAAGTGCGTGAGA it is 0.0863.

TCCCGGCGAGTACCGGAGA: the TetR repression strength is 0.196. Next, TCCCGTGTAGTCCGAGAGA: 0.296; TCCCAGCAAGTGTAGGAGA: 0.0283; TCCCAACAAGTTTATGAGA: 0.207. Next, TCCCGCTGAGTGTTTGAGA: 0.234. The figure for TCCCTGACAGTGATGGAGA is 0.207; for TCCCGATGAGTCATGGAGA it is 0.381.

For the sequence TCCCGTTGAGTGTTTGAGA, the TetR repression strength is 0.13.

As to TCCCATTCAGTTGGTGAGA, the TetR repression strength was determined as 0.0793. Next, TCCCGATCAGTCTTCGAGA: 0.307; TCCCTGATAGTGATGGAGA: 0.117. Next, TCCCCATGAGTCGATGAGA: 0.498; TCCCGCGGAGTGGACGAGA: 0.229. The figure for TCCCGACGAGTAAAGGAGA is 0.366; for TCCCTCAAAGTTGGCGAGA it is 0.0844. TCCCGACCAGTGCGGGAGA had a TetR repression strength of 0.222. The figure for TCCCAGCTAGTGGGGGAGA is 0.291; for TCCCGCGCAGTGTAAGAGA it is 0.222. The figure for TCCCTGTGAGTAGCTGAGA is 0.195; for TCCCGGTGAGTGTCCGAGA it is 0.136; for TCCCTGGCAGTACGTGAGA it is 0.167. The figure for TCCCATTCAGTGGATGAGA is 0.351; for TCCCGGGCAGTCAACGAGA it is 0.163; for TCCCGGAGAGTGGGCGAGA it is 0.161. TCCCCCACAGTAAGTGAGA: the TetR repression strength stood at 0.126. Next, TCCCGTGGAGTGGGAGAGA: 0.184; TCCCCAGGAGTTTGCGAGA: 0.22. The figure for TCCCGGAAAGTGTGAGAGA is 0.13. With TCCCCAAAAGTGTTAGAGA, the TetR repression strength worked out at 0.219. For TCCCGTAGAGTTCCAGAGA, the TetR repression strength came to 0.389. The figure for TCCCTTTGAGTTTCCGAGA is 0.333; for TCCCTGCGAGTTATTGAGA it is 0.209.

Sequence TCCCATAAAGTGGTAGAGA yielded a TetR repression strength of 0.304.

With TCCCGCTTAGTTTGCGAGA, the TetR repression strength amounted to 0.161. The figure for TCCCTGCTAGTGGGTGAGA is 0.329; for TCCCCGGCAGTTAGTGAGA it is 0.257.

For TCCCGATTAGTCCGAGAGA, the TetR repression strength worked out at 0.0648. The figure for TCCCAGAAAGTTATTGAGA is 0.197; for TCCCCGCGAGTCGAGGAGA it is 0.157; for TCCCTCATAGTGCGCGAGA it is 0.162. Take TCCCTATCAGTGCCCGAGA: the TetR repression strength is 0.629. Regarding TCCCCAATAGTGCTCGAGA, the TetR repression strength was determined as 0.104.

TCCCGTGTAGTCAACGAGA returned a TetR repression strength of 0.231.

For the sequence TCCCCTAGAGTGCAAGAGA, the TetR repression strength turned out to be 0.552. Next, TCCCAATGAGTTGGTGAGA: 0.213. Next, TCCCAGCGAGTGCAGGAGA: 0.18; TCCCGTAGAGTATGAGAGA: 0.547; TCCCGCTCAGTCGATGAGA: 0.143. Next, TCCCGTTTAGTTTCGGAGA: 0.446; TCCCCGGGAGTGCGAGAGA: 0.322. TCCCGTTAAGTCAGTGAGA: the TetR repression strength turned out to be 0.481. Next, TCCCCGGTAGTCAGAGAGA: 0.207. The figure for TCCCGGGCAGTGTCCGAGA is 0.106; for TCCCTCATAGTGTGCGAGA it is 0.151; for TCCCGGATAGTTTCCGAGA it is 0.149. Next, TCCCATGAAGTTCAAGAGA: 0.274; TCCCGTGGAGTCGGCGAGA: 0.202; TCCCGAACAGTCGGAGAGA: 0.119. TCCCCAACAGTACCTGAGA: the TetR repression strength was 0.428. The figure for TCCCATTCAGTGGAGGAGA is 0.611.

In turn, TCCCTCGTAGTAGGTGAGA yielded a TetR repression strength of 0.0299. TCCCTGATAGTGGCTGAGA showed a TetR repression strength of 0.256. Next, TCCCTTCTAGTAGAGGAGA: 0.289; TCCCCTTCAGTGGCCGAGA: 0.221; TCCCGTAGAGTGACCGAGA: 0.12. Next, TCCCGCGGAGTGAGGGAGA: 0.196; TCCCCTCGAGTCGTGGAGA: 0.145; TCCCGCATAGTCTTTGAGA: 0.393. The figure for TCCCTTGGAGTGTATGAGA is 0.208. In turn, TCCCTGGCAGTCTCGGAGA gave a TetR repression strength of 0.19. The figure for TCCCCACGAGTGCCAGAGA is 0.256; for TCCCCTAAAGTCGTAGAGA it is 0.36. Next, TCCCGAGAAGTAAGGGAGA: 0.16; TCCCTCTCAGTCGGTGAGA: 0.393; TCCCGAAGAGTTGGGGAGA: 0.507. Next, TCCCGCGAAGTTTAGGAGA: 0.221; TCCCCAATAGTCGAGGAGA: 0; TCCCATTGAGTAGGTGAGA: 0.186. TCCCTCGAAGTGTGAGAGA: the TetR repression strength came out at 0.274.

As to TCCCAAAGAGTGTTGGAGA, the TetR repression strength came out at 0.305.

In turn, TCCCTCCTAGTTGTGGAGA registered a TetR repression strength of 0.3. The sequence TCCCTTGAAGTATAAGAGA returned a TetR repression strength of 0.264. Consider TCCCGACTAGTCCGCGAGA, for which the TetR repression strength is 0.311. The figure for TCCCAAGTAGTGTCAGAGA is 0.635; for TCCCTCGCAGTGAGCGAGA it is 0.22. As for TCCCTGTAAGTGGAAGAGA, the TetR repression strength was 0.0201. Regarding TCCCAATGAGTGAGCGAGA, the TetR repression strength stood at 0.306.
